Measurements reported in the supplement of paper PMC11417369.
± gives the standard deviation of the averaged measurements. Some of the results follow.

Test system: PfAP2-LT AP2 domain (GST-tagged)
Assay: gcPBM binding intensity (ln(normalized median fluorescence intensity)); higher = stronger DNA binding
How it was run: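 An Agilent 4 × 180k array carrying primer-extended double-stranded 36-bp intergenic genomic probes and negative controls received GST-tagged P. falciparum DNA-binding domains expressed in E. coli, about 25 μg on average, for 1 h. The binding buffer contained 1× PBS, 1% milk, 0.2 mg/ml BSA, 0.5% salmon testes DNA and 0.03% Triton X-100. Binding intensity is the top Masliner-normalised natural-log median intensity across replicate spots of either probe orientation, read after Alexa488 anti-GST antibody staining and a 488 nm scan.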

Sequence	gcPBM binding intensity (ln)
AAAATGTTTTTATCCAGTACATAAATATATATATAT [XGTACX_site7398]	8.78 ± 0.3
TATGAACACCCAAATACACACACTCAAAAAAAAAAA [CACACA_site5466]	9.36 ± 0.4
CTTTATATATATTGCGTGCACATTTTTTTTTTTTTT	8.99 ± 0.53
CTATTTAAAATTTGAACACACATTATTTATTTTAAA [CACACA_site3114]	8.42 ± 0.48
GAAATAATAAAATCGACACACAAAAAAAAAAAAAAA [CACACA_site3476]	8.94 ± 0.48
AATAAATACAAAAATGTACACACATATATATATTTT [CACACA_site9167]	9.02 ± 0.42
TCAATATATATAAGAAGTACATGTGAATGAAAAAAA [XGTACX_site1674]	8.86 ± 0.54
TTCTGTATACGGTGTGCACACAATTAAAAAAAAAAA [CACACA_site1416]	9.21 ± 0.54
AACATATAAAAATATGCACACACAGGAATACAAACA [CACACA_site8127]	9.89 ± 0.45
TTAAATAACCTCAAGGATAAGAAAAAATTAAAAATT [CACACA_negctrl_site1336]	8.46 ± 0.49
GTAAATATATATATATATATATATATATATATATAT [GTGCAC_negctrl_site239]	9.81 ± 0.11
TTTATATACTATCAACGTACAAAAGTAATAAAAATA [XGTACX_site4343]	8.66 ± 0.52
GGATTTTACCATAGCACACATATATGAATATTTTTC [CACACA_site1814]	8.99 ± 0.34
TTGTAACAAAAGTACACACACATTTCTATAAATTTT [CACACA_site2772]	9.11 ± 0.38
CATTTTATTTTCTTTGTGCACAAAAATATTTTTTCT	8.89 ± 0.44
AAAGTTATGATATATACACACATATAAATATTAAAT [CACACA_site6361]	9.02 ± 0.45
TGTTCTAATTTTAATTGTACATATATACATATATAT [XGTACX_site7290]	8.98 ± 0.47
TTTAAAAAAAAAAAAAATTTTTTTTTTTTTTTTTTA [CACACA_negctrl_site1415]	7.83 ± 0.49
CATATATATATATGAACACACAAAAAGAATATTTCC [CACACA_site1493]	9.06 ± 0.47
TCTATACCTATTCTTACACACATATGTATTTATATA [CACACA_site4475]	9.28 ± 0.46
TTCTATGCATTTATAGTGCATGTAAAATATAAGATA [GTGCAC_site9466]	8.38 ± 0.3
GTAGAAAGAAAAATTAGTACTTAAATATTATAAAAA [XGTACX_site8458]	8.4 ± 0.47

Sequence	gcPBM binding intensity (ln)
AATTATATTTAGTATATGCACACTTTATGTTTGTTA [CACACA_site2025]	9.08 ± 0.47
TTTTAAAAAATATAATAATATAAATATTTTATACGT [TGCATGCA_negctrl_site252]	8.28 ± 0.48
GACTTTTTCATTTTTAGTACACATATATATTTCCCT [XGTACX_site3511]	9.15 ± 0.57
AAAAAAAAAAAACATACACACACACTAATATTTATA [CACACA_site8038]	9.6 ± 0.23
ATATATTTTTAATATGCACACAAGAATACATTCACA [CACACA_site914]	8.99 ± 0.34
TTAAAAAATCACAACACACACACACCCAAAAAAAAA [CACACA_site1445]	9.77 ± 0.26
TTTATACTTTCAAAATGTACATATATATATATATAT [XGTACX_site6241]	9.36 ± 0.042
CTAATCATAAAATATACACACACGGATACATTAAAT [CACACA_site2685]	9.47 ± 0.28
ATTGAAGGGAAATATATAATCATATTCAAAATAAAA [CACACA_negctrl_site728]	8.57 ± 0.45
ATTTCTCTATCGTAATGTACAAAAAAAAGGGAAAAG [XGTACX_site1335]	8.66 ± 0.47
TAATATATAATTTTATGTACATAATTATAAACCCAT [XGTACX_site919]	8.64 ± 0.4
CATCAAAATGAAGCATGTACATAATATAAATAAATA [XGTACX_site4647]	8.88 ± 0.53
CTTTTTACTTAATACACACACACACCCAAAAAAAAA [CACACA_site948]	9.61 ± 0.2
AAAAAATACCAAAGGGGTACTTACACATAATACTTA [XGTACX_site2111]	8.77 ± 0.48
TATGTATATTGAGATTGTACTTGTAATATTAAACAT [XGTACX_site3878]	8.55 ± 0.4
TTGTATAAAATATGTAGTACAATAATATAACATTTT [XGTACX_site8607]	8.66 ± 0.35
AATAATAAAAATATTGTGCACTTGTATATTTATTAT [GTGCAC_site9963]	8.85 ± 0.4
GGTATTTTCACATATAGTACACAAAAATAAAATAAA [XGTACX_site2139]	8.71 ± 0.44
ATATCAAATAATTTAGTGCACTTTTTTTTTTCTTTT [GTGCAC_site9629]	8.79 ± 0.54
AAGGAATAAAATTTAGAAGACAATTTTATTTCAGTA [XGTACX_negctrl_site331]	8.41 ± 0.52
ATATTAACTTTTATTACACACTCTCAACTTTTATTT [CACACA_site6176]	9.01 ± 0.57
TCACAAATGTATTATACACACAAGTTTTCTTTAATA [CACACA_site4107]	8.71 ± 0.45

Sequence	gcPBM binding intensity (ln)
TATATAATATAATGTAGTACATGTTTTATTTTTTAC [XGTACX_site7735]	8.71 ± 0.46
ATTTATTTATTTTCATGTACATATGTAAATCAATAA [XGTACX_site3886]	8.62 ± 0.32
ATAAAATACAAAGGGACACACATATGAGTCTACAAA [CACACA_site3092]	9.16 ± 0.52
TAAACACATTATATATGTACATAATAAAAAAAAAAA [XGTACX_site7907]	8.84 ± 0.52
AAGTTATACACATCAACACACACATACAACGTGGTG [CACACA_site8312]	9.45 ± 0.4
CAAAATGATATGACAACACACAACCTATAGTAAGAC [CACACA_site1287]	9.38 ± 0.49
TAATATATAATAAAGTGTACATATGCTTTATTATTA [XGTACX_site1920]	8.62 ± 0.38
TGACGACATTTCTTATGTACTAATTTTTCTTCCTTT [XGTACX_site4391]	8.78 ± 0.45
TAAAAAAAGAAAAAAAGTACATGCTACTTTTATGAT [XGTACX_site7818]	8.5 ± 0.42
GGAATATAAATACATACACACATATATATATATATA [CACACA_site4998]	10 ± 0.33
TATAATAAATCAAATGCACACACACTAATAAAAAAA [CACACA_site7937]	9.63 ± 0.35
TGTTGTTATAAAAAAAAAAAAAAAAAAAAAAAAAAA [GTGCAC_negctrl_site230]	7.89 ± 0.39
TGTGGTTTTTATAATTGTACATATATATAAATCTAT [XGTACX_site4766]	8.78 ± 0.33
ATATAAAATAAATAAGTGCAGATAAATTTATGTGAC [GTGCAC_site9504]	9.11 ± 0.54
TATATATTATATATATGTACTTATTTATTAATTTAT [XGTACX_site5253]	8.61 ± 0.47
TACATGCTTATTTTAACACACAAATGGTAGTAATAA [CACACA_site766]	8.84 ± 0.46
ATGAATATTTACAATCTTATTATGTTCAAAATTAAT [CACACA_negctrl_site592]	8.38 ± 0.46
TGAATGCTTTTATGCACACGTACAAAAATATTATAT [CACACA_site2668]	8.82 ± 0.33
AATAAAAATAACCTAACATGCAAAAAAAAAAAAAAA [TGCATGCA_site718]	8.72 ± 0.61
GTCATTAAAAAAATATGTACTTAAATGTATGCATAT [XGTACX_site5951]	8.7 ± 0.42
ATGAATGTCCCAAGATGTACAATTATATATAACACA [XGTACX_site4702]	8.69 ± 0.42
AAATCCTTATTTTTTTGTACGTAATATTTTATATGG [XGTACX_site1530]	8.71 ± 0.44

Sequence	gcPBM binding intensity (ln)
TAATAAATAAGACACACACACATATATATATATTAT [CACACA_site1389]	9.8 ± 0.2
GAGTAAAAATTAAAATGTACATATTATATATATTTA [XGTACX_site1319]	8.58 ± 0.45
AGTAAATAACACAAATATGAATGAAAAAAAAAATAT [GTGCAC_negctrl_site235]	9.01 ± 0.49
TGTGCGGAAATAAGTGCACACATAGATATCTGTATT [CACACA_site5935]	9.25 ± 0.31
CAACTTATTAAAAGTCGTACAAATGGGAAGAAGGAA [XGTACX_site6325]	8.8 ± 0.36
CGTATGAGTAAATACACACCCACGTATATATATAAA [CACACA_site5728]	8.94 ± 0.4
ATATATATATAGTACGCACACATAGTTGTACATTAA [CACACA_site2787]	9.29 ± 0.22
TTATACAACAAGAAAATTATAAAATGTAACATATAT [GTGCAC_negctrl_site406]	8.68 ± 0.44
ATATTAATATAATGTGCATGTTCAATGATCTTTTTA [TGCATGCA_site22]	8.69 ± 0.42
ATAATTATTAATATAGTGCATTGGCATAATAATATA [GTGCAC_site9810]	8.69 ± 0.39
TACAAATATATATGCACACACATATATGTATATGTG [CACACA_site3075]	9.62 ± 0.28
TATTTTTTAACACAACGTACATATAAAAAATATTTA [XGTACX_site6025]	8.31 ± 0.38
TTAGATATAATATATACACACCAACGAACGAAGAAA [CACACA_site4763]	9.12 ± 0.4
TTCTTTTCTCTTTTAATCATATTATATAAATGAATA [CACACA_negctrl_site820]	8.31 ± 0.52
AAAAAAATTTATTAAAGTACTAGATAATCATATAAA [XGTACX_site1455]	8.37 ± 0.53
ATATATAAAAAAGCTAGTACACAAAAATATATAATG [XGTACX_site3001]	8.95 ± 0.54
AAAAATTTTATATTCACACACATATTTATATTTATA [CACACA_site6439]	8.95 ± 0.35
ATTATAAATAAATATTGTACTTATATGATCTATTTG [XGTACX_site3820]	8.53 ± 0.57
AGAATAATATAATAAAGTACAAACCTATCTAACTAC [XGTACX_site5477]	9.05 ± 0.45
CCTTTCACATATAATACATGCATTATTATATATGAA [TGCATGCA_site287]	8.7 ± 0.23
ATTGCATTTGTAGATAATACAATATGGATTGTTATA [CACACA_negctrl_site1749]	8.59 ± 0.3
GGATATATTATATGTACACACACATATAAGGGATTA [CACACA_site7884]	9.34 ± 0.31
